Measured values: paper PMC4336329 (PLoS ONE, 2015)
Hit rate of the full screen: of about 310,000 compounds, about 2,200 (0.71%) showed an effect of 50% or more. Effects have a minus sign here. The list shows a part of the results.

What follows are compounds tested against human ether-à-go-go-related gene (hERG) potassium channel (human, UniProt Q12809) (assay: primary screen, population patch clamp on CHO cells stably expressing hERG).
Chain of human ether-à-go-go-related gene (hERG) potassium channel (Q12809 whole entry, looked up): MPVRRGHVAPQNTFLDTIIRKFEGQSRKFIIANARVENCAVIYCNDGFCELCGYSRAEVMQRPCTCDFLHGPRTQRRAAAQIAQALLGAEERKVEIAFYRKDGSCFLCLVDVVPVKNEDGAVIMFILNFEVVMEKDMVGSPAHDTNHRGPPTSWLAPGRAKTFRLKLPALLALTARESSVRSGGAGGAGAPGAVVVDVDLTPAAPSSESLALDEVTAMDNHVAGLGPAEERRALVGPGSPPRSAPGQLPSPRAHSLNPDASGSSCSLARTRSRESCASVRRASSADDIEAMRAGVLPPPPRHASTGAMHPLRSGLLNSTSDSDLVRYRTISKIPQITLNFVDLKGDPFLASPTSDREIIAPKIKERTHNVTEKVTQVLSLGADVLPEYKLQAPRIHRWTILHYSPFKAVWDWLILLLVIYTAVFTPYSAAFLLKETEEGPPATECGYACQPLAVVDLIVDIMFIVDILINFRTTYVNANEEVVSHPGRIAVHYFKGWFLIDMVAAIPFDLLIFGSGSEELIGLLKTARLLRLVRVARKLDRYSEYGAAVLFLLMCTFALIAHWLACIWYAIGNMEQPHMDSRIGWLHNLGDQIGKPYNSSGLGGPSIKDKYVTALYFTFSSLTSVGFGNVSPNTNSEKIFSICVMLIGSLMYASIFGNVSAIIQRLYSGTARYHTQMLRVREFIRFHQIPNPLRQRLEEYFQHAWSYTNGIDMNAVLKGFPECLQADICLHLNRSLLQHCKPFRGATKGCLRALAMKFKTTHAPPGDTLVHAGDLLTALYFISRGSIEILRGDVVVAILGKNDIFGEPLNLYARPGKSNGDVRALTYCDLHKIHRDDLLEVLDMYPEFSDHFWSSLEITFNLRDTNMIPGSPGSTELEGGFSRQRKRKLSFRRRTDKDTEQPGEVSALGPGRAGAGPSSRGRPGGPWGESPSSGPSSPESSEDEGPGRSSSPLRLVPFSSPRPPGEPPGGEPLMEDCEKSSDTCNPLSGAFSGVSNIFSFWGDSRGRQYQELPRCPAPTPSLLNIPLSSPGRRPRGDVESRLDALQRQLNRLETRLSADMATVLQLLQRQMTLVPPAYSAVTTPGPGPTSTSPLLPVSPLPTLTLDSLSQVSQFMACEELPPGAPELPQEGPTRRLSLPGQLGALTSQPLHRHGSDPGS

First: C=CCOc1ccc(C(=O)CC)cc1OC
Second: CCN(CC(=O)NCc1cccs1)C(=O)c1ccc(OC)c(OC)c1
The “hERG current change (%, negative = inhibition) at 1uM” value of the first is lower: -7.9% for the first, 10.7% for the second.

Compared with `CS(=O)(=O)N1CCN(C(=O)c2ccc(Cl)s2)CC1`, `COc1ccc(S(=O)(=O)N(C)c2ccc(C(=O)N3CCN(C)CC3)cc2)cc1` is higher in “hERG current change (%, negative = inhibition) at 1uM” value: 8.31% for the first, 14.2% for the second.

First: CCS(=O)(=O)Nc1ccc2c(c1)OCO2
Second: CN(Cc1nc(-c2ccccc2)no1)C(=O)c1ccc2c(c1)OCO2
The “hERG current change (%, negative = inhibition) at 1uM” value of the first is higher: 18% for the first, -3.39% for the second.

Going from `CN(CC1CCOCC1)C(=O)CC1C(=O)NCCN1CC1CCCCC1` (centres unmarked) to `CC1CCCCN1CCNC(=O)C1CCCN(c2ncnc3c2nc2n3CCCCC2)C1` (centres unmarked), the “hERG current change (%, negative = inhibition) at 1uM” value falls from 11.9% to 7.1%.

First: S=C(NCC1CCCO1)N1CCN(Cc2ccccc2Cl)CC1 (centres unmarked)
Second: O=C(c1ccc(CS(=O)Cc2ccc(Cl)cc2)o1)N1CCN(c2ccccc2)CC1 (centres unmarked)
The “hERG current change (%, negative = inhibition) at 1uM” value of the first is higher: 11.5% for the first, -4.21% for the second.

Going from `O=S1(=O)CCOC[C@H](c2ccccc2)N1Cc1ccccc1` to `CC1CCN(C(=O)CN2C(=O)NC(c3ccccc3)(c3ccccc3)C2=O)CC1`, the “hERG current change (%, negative = inhibition) at 1uM” value falls from 10.4% to 4.82%.

Going from `Cn1c(-c2ccc3nc(N)sc3c2)nc2cc(N)ccc21` to `CCOC(=O)c1ccc2nc(Nc3nc4ccc(F)cc4s3)sc2c1`, the “hERG current change (%, negative = inhibition) at 1uM” value falls from 6.08% to 2.31%.

Compared with `CN(C)Cc1cc2ccccc2c2c1COC2`, `CN(C)CCNCc1ccccc1OC1CCCC1.Cl` is lower in “hERG current change (%, negative = inhibition) at 1uM” value: 7.63% for the first, 0.0121% for the second.

First: Cc1ccccc1NCc1nc2ccccc2n1C
Second: Cn1c(NC(=O)c2ccccc2NC(=O)C(C)(C)C)nc2ccccc21
The “hERG current change (%, negative = inhibition) at 1uM” value of the first is higher: 14.9% for the first, 8.42% for the second.

Compared with `Cc1c(N=C2N=C(NC(=O)c3ccc(F)cc3)c3ccccc32)c(=O)n(-c2ccccc2)n1C`, `CC(C)c1ccccc1NC(=O)c1ccc(CN(c2ccccc2)S(=O)(=O)c2ccccc2)cc1` is higher in “hERG current change (%, negative = inhibition) at 1uM” value: 1.94% for the first, 10.2% for the second.

Going from `CC(C)(C)NC(=O)c1ccccc1-c1nc2ccccc2s1` to `Cc1ccccc1-c1nn2c(-c3ccccc3)nnc2s1`, the “hERG current change (%, negative = inhibition) at 1uM” value rises from 5.8% to 6.92%.

First: C=CCSC1=C(C#N)C(c2ccccc2C)CC(=O)N1 (centres unmarked)
Second: CCSc1nc(C2CC2)cc(-c2ccco2)c1C#N
The “hERG current change (%, negative = inhibition) at 1uM” value of the first is lower: 5.59% for the first, 11% for the second.

First: CCOC(=O)Cc1ccc(NS(=O)(=O)c2ccc(SC)cc2)cc1
Second: NS(=O)(=O)c1ccc(CCNC(=S)Nc2ccc(S(N)(=O)=O)cc2)cc1
The “hERG current change (%, negative = inhibition) at 1uM” value of the first is lower: 7.39% for the first, 9.85% for the second.

Compared with `Nc1n[nH]c2c1C1(CCCCC1)Cc1ccccc1-2`, `CCOC(=O)C1(CCOc2ccccc2)CCN(Cc2cccc3nonc23)CC1` is lower in “hERG current change (%, negative = inhibition) at 1uM” value: 11.7% for the first, 2.95% for the second.

First: O=C(Cn1cnc2cc([N+](=O)[O-])ccc2c1=O)NC(=O)NCc1ccccc1
Second: CC1CCN(S(=O)(=O)c2ccc3ncn(CC(=O)N(C)Cc4ccccc4)c(=O)c3c2)CC1
The “hERG current change (%, negative = inhibition) at 1uM” value of the first is higher: 9.49% for the first, -3.54% for the second.

Going from `CCOC(=O)COc1ccccc1C1Nc2ccccc2C(=O)N1c1cccc(Cl)c1` (centres unmarked) to `Cc1cc(=O)n(C(NC(=O)c2ccccc2)C(=O)c2ccccc2)cn1` (centres unmarked), the “hERG current change (%, negative = inhibition) at 1uM” value rises from 1.92% to 10.2%.

Going from `Cc1sc2nc(SCC(=O)N(CCO)CCO)nc(N)c2c1C` to `CCOC(=O)C(CC)(CCC(=O)O)c1csc(N)n1` (centres unmarked), the “hERG current change (%, negative = inhibition) at 1uM” value rises from 11.2% to 23.7%.

Going from `CCCN(CCC)S(=O)(=O)c1ccc(C(=O)NCc2n[nH]c(=S)n2-c2ccc(Cl)c(Cl)c2)cc1` to `CN(C)S(=O)(=O)c1ccc(/C(O)=C2/C(=O)C(=O)N(Cc3cccnc3)C2c2ccncc2)cc1` (centres unmarked), the “hERG current change (%, negative = inhibition) at 1uM” value rises from 13.4% to 22.9%.

First: COc1cc2c(cc1NC(=O)CSc1nccn1C)oc1ccccc12
Second: O=c1c2ccccc2oc2cc(NCCCN3CCOCC3)ccc12
The “hERG current change (%, negative = inhibition) at 1uM” value of the first is higher: 19.9% for the first, 5.41% for the second.

Going from `O=C(COc1ccccc1)Nc1nc(-c2cccnc2)cs1` to `Cc1cccn2cc(-c3ccc(NC(=O)Cc4ccccc4)cc3)nc12`, the “hERG current change (%, negative = inhibition) at 1uM” value rises from 0.973% to 12.7%.

First: Cc1ccc(S(=O)(=O)N(C)C)cc1NC(=O)COC(=O)CNC(=O)C12CC3CC(CC(C3)C1)C2
Second: O=C(COC(=O)Cc1cccs1)NCC(=O)Nc1ccc(F)cc1
The “hERG current change (%, negative = inhibition) at 1uM” value of the first is higher: 14.4% for the first, 0.811% for the second.

First: C=CCN(CC=C)S(=O)(=O)c1ccc2nsnc2c1
Second: C=CCn1c(SCC(N)=O)nnc1-c1cccc(Br)c1
The “hERG current change (%, negative = inhibition) at 1uM” value of the first is higher: 9.84% for the first, -1.54% for the second.

Going from `Cc1cc(OCCN2CC(C)OC(C)C2)ccc1[N+](=O)[O-].O=C(O)C(=O)O` (centres unmarked) to `CCN(CC)C(=O)C1CCN(Cc2cccc(OCc3ccccc3)c2)CC1.O=C(O)C(=O)O`, the “hERG current change (%, negative = inhibition) at 1uM” value falls from -5.36% to -12.6%.

Going from `COc1ccc2c(CC(=O)N3CCc4cc(OC)c(OC)cc4C3)coc2c1` to `COc1ccc(/C=C\C(=O)c2c(O)ccc3c(C)cc(=O)oc23)cc1OC`, the “hERG current change (%, negative = inhibition) at 1uM” value falls from 12.7% to 5.82%.

First: Cc1nn(-c2ccccc2)nc1C(=O)Nc1ccc2c(c1)OCCO2
Second: Cc1ccc(NC(=O)CSc2nccn(-c3ccc4c(c3)OCCO4)c2=O)cc1
The “hERG current change (%, negative = inhibition) at 1uM” value of the first is higher: 6.18% for the first, -0.57% for the second.

Compared with `CCN(CC)CCNc1ncnc2c1sc1nc(N3CCOCC3)c3c(c12)CCCC3`, `O=C(NCCCN1CCCC1)c1ccc2c(Cl)c3c(nc2c1)CCCC3` is lower in “hERG current change (%, negative = inhibition) at 1uM” value: 4.99% for the first, -1.92% for the second.

Going from `O=C(NC(=S)Nc1ccccc1)c1cc([N+](=O)[O-])ccc1N1CCOCC1` to `Cc1ccc2[nH]c(=O)c(CN(CCN3CCOCC3)C(=O)Nc3ccc(F)cc3)cc2c1`, the “hERG current change (%, negative = inhibition) at 1uM” value falls from 16.5% to -13.4%.

Going from `CCOP(=O)(OCC)C(O)c1ccccc1` (centres unmarked) to `CCOCCn1c(C(C)O)nc2ccccc21` (centres unmarked), the “hERG current change (%, negative = inhibition) at 1uM” value falls from 15.4% to 10.3%.

First: Cc1ccc2nc(-c3ccsc3)c(NC3CCCC3)n2c1
Second: O=C1/C(=C\c2ccsc2)N2CCC1CC2
The “hERG current change (%, negative = inhibition) at 1uM” value of the first is higher: 15% for the first, 8.62% for the second.

First: CCCCn1c(N)c(NCC(C)C)c(=O)[nH]c1=O
Second: Cc1cc(C)cc(NC(=O)CN(C)CC(=O)N(CC(C)C)c2c(N)n(CC(C)C)c(=O)[nH]c2=O)c1
The “hERG current change (%, negative = inhibition) at 1uM” value of the first is higher: 16.3% for the first, 5.88% for the second.

First: O=C(COC(=O)c1cc(S(=O)(=O)N2CCOCC2)ccc1Cl)NCc1ccc2c(c1)OCO2
Second: Cc1cccc2cc(CN(Cc3ccco3)S(=O)(=O)c3ccc4c(c3)OCCO4)c(=O)[nH]c12
The “hERG current change (%, negative = inhibition) at 1uM” value of the first is lower: 9.97% for the first, 10.5% for the second.

Compared with `COc1cccc(NC(=O)CN(C)CC(=O)Nc2ccc3c(c2)CCC3)c1`, `CN(CC(=O)Nc1ccc(Cl)cc1)CC(=O)Nc1ccc(C(N)=O)cc1` is higher in “hERG current change (%, negative = inhibition) at 1uM” value: 11.7% for the first, 15.3% for the second.

Compared with `CC(C)NC(=O)COc1ncnc2sccc12`, `Cn1cccc1CC(=O)N/N=C\c1cccs1` is higher in “hERG current change (%, negative = inhibition) at 1uM” value: 11.6% for the first, 14.5% for the second.

Going from `O=C(NCCCN1CCCC1=O)C(=O)NCC1OCCN1S(=O)(=O)c1ccc(Br)cc1` (centres unmarked) to `Cc1ccc(S(=O)(=O)N2CCCN(c3nccc(C(F)(F)F)n3)CC2)cc1`, the “hERG current change (%, negative = inhibition) at 1uM” value falls from 12.7% to 10%.

First: O=C(CSc1nnc(-c2ccco2)o1)NCC(=O)c1ccccc1
Second: CCOC(=O)Cn1cnc2c(cnn2-c2ccccc2)c1=O
The “hERG current change (%, negative = inhibition) at 1uM” value of the first is lower: -1.65% for the first, 8.5% for the second.

Going from `CCn1c(SCC(=O)Nc2cccc(NC(C)=O)c2)nnc1C(C)C` to `Cc1cc(/C=N\NC(=O)CC(=O)NC2CCCCC2)c(C)n1-c1ccc(Cl)c(Cl)c1`, the “hERG current change (%, negative = inhibition) at 1uM” value falls from 14.2% to 11.9%.

Compared with `COCCc1nc2ccc(C(=O)N3CCCC(CCCO)C3)cc2o1` (centres unmarked), `CCCc1cc(=O)oc2cc(OCC(=O)N3C[C@H]4C[C@@H](C3)c3cccc(=O)n3C4)c(Cl)cc12` is lower in “hERG current change (%, negative = inhibition) at 1uM” value: 16.9% for the first, 7.62% for the second.

Compared with `Cc1nc2c(nnn2Cc2c(Cl)cccc2Cl)c(=O)[nH]1`, `N#Cc1ccc(C(=O)Nc2nc3ccccc3[nH]2)cc1` is higher in “hERG current change (%, negative = inhibition) at 1uM” value: 13.9% for the first, 17.7% for the second.

Compared with `Cc1ccc(C(=O)CCC(=O)OC(C)C(=O)NC2CCCCC2C)cc1` (centres unmarked), `COc1cc([C@@H]2CC=C(C(=O)O)CN2S(=O)(=O)c2ccc(C)cc2)cc(OC)c1OC` is higher in “hERG current change (%, negative = inhibition) at 1uM” value: 6.25% for the first, 19.1% for the second.

Compared with `COc1ccccc1OC(=O)c1ccc(SC)cc1OC`, `COc1cc(NC(=O)CSc2nc3c(c(=O)[nH]2)CCCC3)cc(OC)c1OC` is higher in “hERG current change (%, negative = inhibition) at 1uM” value: -9.71% for the first, 2.7% for the second.

Compared with `CCOc1ccc(NC(=O)c2cccs2)c([N+](=O)[O-])c1`, `O=C(Nc1nc2ccc(Cl)cc2s1)c1ccc(Br)o1` is lower in “hERG current change (%, negative = inhibition) at 1uM” value: 8.08% for the first, 1.05% for the second.

First: CCOC(=O)[C@H]1[C@H]2COc3ccc(Br)cc3[C@@H]2N2C(=O)CN(Cc3ccc(OC)cc3)C(=O)[C@@]12C
Second: CCOC(=O)N1CCN(c2ccc(S(=O)(=O)N(Cc3ccccc3)Cc3ccccc3)cn2)CC1
The “hERG current change (%, negative = inhibition) at 1uM” value of the first is higher: 17.6% for the first, 0.388% for the second.

First: CC1C2C(C)N(C)C(=O)N(C)C2N(C)C(=O)N1C (centres unmarked)
Second: Cn1c(=O)c(=O)n(C)c2cc(S(=O)(=O)N3CCN(c4cccc(C(F)(F)F)c4)CC3)ccc21
The “hERG current change (%, negative = inhibition) at 1uM” value of the first is higher: 21% for the first, -0.29% for the second.

First: CC1Nc2ncnc(N3CCN(c4ccccn4)CC3)c2N(Cc2ccccc2)C1=O.O=C(O)C(F)(F)F (centres unmarked)
Second: COc1ccnc(N2CCN(c3ccccc3)CC2)c1C#N
The “hERG current change (%, negative = inhibition) at 1uM” value of the first is lower: 1.57% for the first, 17.2% for the second.

In the case of `CN(C)/C=C1/C=C(C=O)OC1=O`, the “hERG current change (%, negative = inhibition) at 1uM” value is reported as 11%.
